Out of some 310,000 compounds screened, about 14,000 (4.5%) showed an effect of 50% or more. The effect is printed as a negative number. Some of the results follow.
Each compound was assayed against human ether-à-go-go-related gene (hERG) potassium channel (human, UniProt Q12809) (assay: primary screen, population patch clamp on CHO cells stably expressing hERG).
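Note: peak tail current of the secondary pulse compared with the same well before compound.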

Sequence of human ether-à-go-go-related gene (hERG) potassium channel (Q12809 whole entry, looked up): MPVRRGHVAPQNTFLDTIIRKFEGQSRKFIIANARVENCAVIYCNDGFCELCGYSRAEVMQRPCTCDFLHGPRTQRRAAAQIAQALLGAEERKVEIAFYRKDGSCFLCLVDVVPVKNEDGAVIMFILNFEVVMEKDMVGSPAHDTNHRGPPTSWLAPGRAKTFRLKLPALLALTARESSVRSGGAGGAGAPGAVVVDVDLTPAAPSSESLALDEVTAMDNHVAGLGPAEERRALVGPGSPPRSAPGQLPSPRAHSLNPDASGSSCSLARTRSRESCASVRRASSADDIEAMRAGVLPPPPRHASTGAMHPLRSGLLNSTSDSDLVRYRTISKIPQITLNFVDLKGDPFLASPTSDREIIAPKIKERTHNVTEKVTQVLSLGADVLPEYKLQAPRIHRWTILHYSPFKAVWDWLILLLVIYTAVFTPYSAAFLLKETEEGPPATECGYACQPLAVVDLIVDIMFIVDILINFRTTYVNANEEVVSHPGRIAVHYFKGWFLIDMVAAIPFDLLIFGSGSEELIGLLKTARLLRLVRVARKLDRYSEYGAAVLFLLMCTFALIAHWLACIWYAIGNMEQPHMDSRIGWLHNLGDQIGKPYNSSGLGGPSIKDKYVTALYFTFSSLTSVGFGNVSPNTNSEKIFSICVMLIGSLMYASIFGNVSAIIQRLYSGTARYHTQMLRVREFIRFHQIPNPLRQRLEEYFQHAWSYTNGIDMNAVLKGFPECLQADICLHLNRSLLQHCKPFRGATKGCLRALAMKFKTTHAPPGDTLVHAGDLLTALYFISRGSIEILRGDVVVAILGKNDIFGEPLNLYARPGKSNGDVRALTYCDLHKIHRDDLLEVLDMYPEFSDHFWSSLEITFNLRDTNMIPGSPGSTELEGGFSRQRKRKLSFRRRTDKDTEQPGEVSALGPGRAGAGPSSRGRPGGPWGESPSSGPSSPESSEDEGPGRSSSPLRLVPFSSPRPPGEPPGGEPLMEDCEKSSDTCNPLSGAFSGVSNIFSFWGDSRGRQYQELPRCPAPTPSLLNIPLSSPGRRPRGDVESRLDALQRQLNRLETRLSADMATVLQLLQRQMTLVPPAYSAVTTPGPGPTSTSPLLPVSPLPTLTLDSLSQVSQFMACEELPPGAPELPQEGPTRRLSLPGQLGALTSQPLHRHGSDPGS

Compound | hERG current change (%, negative = inhibition) at 10uM
COc1ccc2cc(C(=O)Nc3ccc(S(N)(=O)=O)cc3)sc(=O)c2c1OC | 26.8%
Cn1c(CN2CCN(C(=O)c3ccco3)CC2)nc2cc([N+](=O)[O-])ccc21 | -60%
C=CCn1c(SCC(=O)c2cc(C)n(CCOC)c2C)nc2sc(C)c(C)c2c1=O | 14.4%
COCCNC(=O)Nc1ccc2nc(-c3cccs3)c(-c3cccs3)nc2c1 | 5.82%
COc1ccc(Cc2noc(CN(C)CCc3ccccc3)n2)cc1OC | 7.3%
Cc1c(N(C(=O)c2cnccn2)C2(C(=O)NC3CCCC3)CCCCC2)c(=O)n(-c2ccccc2)n1C | -27.1%
CCCCCOc1ccc(C(=O)NC(C(=O)O)C(C)C)cc1 (stereo not shown) | 6.65%
CCC(=O)NC(Nc1ccccn1)(C(=O)OC)C(F)(F)F (stereo not shown) | 33%
COc1ccc(C(=O)Nc2c(O)ccc3ccccc23)cc1 | 18.8%
CC(C(=O)N(C)c1ccccc1)N1CCN(C(=O)c2ccccc2)CC1.O=C(O)C(=O)O (stereo not shown) | 19.2%
O=C(NCCCN1CCOCC1)c1nn2c(C(F)(F)F)cc(-c3ccco3)nc2c1Cl | -9.44%
Nc1ccc(C(=O)N2CCN(S(=O)(=O)c3ccc4c(c3)OCCCO4)CC2)cc1[N+](=O)[O-] | -31.9%
COc1ccc(-c2ccnc(-c3ccc(OCCCF)cc3)n2)cc1 | 3.51%
COc1ccc(/C=N/n2cnc3c([nH]c4ccc(C)cc43)c2=O)cc1CN1CCCC1 | -63.2%
CCN(CC)S(=O)(=O)c1cccc(C(=O)N/N=C/c2cccc(O)c2O)c1 | 9.35%
COc1cccc(/C=C/C(=O)OCC(=O)N2c3ccccc3NC(=O)C2(C)C)c1 | 4.91%
COc1ccc(N(CC(=O)N2CCC(Cc3ccccc3)CC2)S(C)(=O)=O)cc1 | -44.1%
Nc1c(C(=O)c2ccccc2O)cnn1-c1ccc(S(=O)(=O)N2CCOCC2)cc1[N+](=O)[O-] | 17%
Cc1c(CCO)c(=O)[nH]n1S(=O)(=O)c1ccc([N+](=O)[O-])cc1 | 12.8%
CCc1ccc(C(=O)/C=C2\Sc3ccccc3NC2=O)cc1 | 18.7%
COc1ccccc1Nc1nnc(SC(C)C(=O)NC2CC2)s1 (stereo not shown) | -4.64%
CC(=O)N1CCc2cc(S(=O)(=O)NCCC(=O)NC3CCN(Cc4ccccc4)CC3)ccc21 | 10.8%

Compound | hERG current change (%, negative = inhibition) at 10uM
Cc1cc(C)c(S(=O)(=O)n2cnc3ccccc32)c(C)c1 | 9.67%
Cc1ccc(C2(C)NC(=O)N(CC(=O)Nc3ccc4[nH]c(=O)[nH]c4c3)C2=O)cc1 (stereo not shown) | -3.13%
CCC1CCC2(CC1)NC(CO)(CO)CO2 (stereo not shown) | 8.52%
N/C(=N\OC(=O)Cc1cccs1)c1ccccc1 | -6.77%
O=C(COC(=O)Cc1ccc(Cl)cc1Cl)NCCC1=CCCCC1 | 8.53%
COc1ccc(C2C(C(=O)N3CCCC3)CC(=O)N2c2ccc(OC)cc2)cc1 (stereo not shown) | 0.91%
COc1cccc(C(=O)Nc2nnc(-c3ccc(Cl)cc3)o2)c1 | -14.4%
Cc1cccc2sc(N(CCCN(C)C)C(=O)COc3ccc(Cl)cc3)nc12.Cl | -60.5%
O=C(NC1CCCCC1)C(c1cccnc1)N(C(=O)c1csnn1)c1ccccc1 (stereo not shown) | -5.89%
O=C(NNS(=O)(=O)c1ccc2ccccc2c1)c1cccnc1 | -1.23%
CNC(=O)/C(C#N)=C/c1c(N2CCCCCC2)nc2c(C)cccn2c1=O | -12.7%
Cc1occc1C(=O)NC(C)C(C)(C)C (stereo not shown) | 2.67%
O=C(OCCOc1ccc(F)cc1)c1ccc(S(=O)(=O)N2CCCC2)cc1 | 5.02%
CCOc1ccccc1NC(=O)CSc1nc2ccccc2nc1N1CCOCC1 | -30.5%
C/C(=N\OCC(=O)NC(C)C)c1cccs1 | 46.1%
O=C(Nc1cccc(S(=O)(=O)N2CCOCC2)c1)c1cc([N+](=O)[O-])ccc1N1CCOCC1 | -15.2%
Cc1cc(NC(=O)CSc2ncccc2C(=O)O)no1 | 4.04%
Cc1ccc(S(=O)(=O)N2CC=C(C(=O)NC3CC3)CC2)cc1 | -3.78%
CCOC(=O)C1C(=O)CC(O)(c2ccccc2)CC1c1ccccc1 (stereo not shown) | -0.475%
CCN(CC)c1c([N+](=O)[O-])c(=O)sc2ccccc12 | 7.23%
COc1ccc(CC(=O)OCC(=O)Nc2ccc(OC(F)F)cc2)cc1OC | -19.7%

From publication PMC4336329 (PLoS ONE, 2015)
